# In the supplement of paper PMC3334620:
# Over roughly 33,000 sequences, “E-score (-0.5 to 0.5)” has its median near -0.035; the highest 2% begin near 0.34. The list shows a part of the results.
# Target: T1, Mot3 (UniProt P54785)
# T1 sequence: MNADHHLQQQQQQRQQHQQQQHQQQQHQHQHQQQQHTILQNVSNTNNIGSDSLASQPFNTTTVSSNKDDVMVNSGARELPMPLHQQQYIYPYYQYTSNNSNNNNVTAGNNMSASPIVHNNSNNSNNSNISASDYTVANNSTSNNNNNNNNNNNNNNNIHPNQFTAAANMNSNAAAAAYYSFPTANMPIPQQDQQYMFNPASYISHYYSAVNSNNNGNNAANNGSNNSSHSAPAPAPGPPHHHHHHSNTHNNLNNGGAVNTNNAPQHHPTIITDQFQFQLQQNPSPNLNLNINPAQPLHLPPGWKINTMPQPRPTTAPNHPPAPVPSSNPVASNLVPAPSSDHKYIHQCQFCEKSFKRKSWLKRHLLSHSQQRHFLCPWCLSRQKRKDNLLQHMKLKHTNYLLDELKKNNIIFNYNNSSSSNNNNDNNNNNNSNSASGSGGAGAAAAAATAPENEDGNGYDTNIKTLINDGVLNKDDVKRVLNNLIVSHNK
# Assay: PBM E-score (8-mer binding enrichment) (E-score (-0.5 to 0.5)); higher = stronger / more preferred TF binding; most listed sequences are background and not binding sites
# Conditions: protein concentration: 200 nM; construct: GST-full length
# Procedure, shortened: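 For each ungapped eight-base word taken together with its reverse complement, the Universal PBM Analysis Suite assigned an E-score. Binding data came from GST-tagged yeast transcription factors, applied at about 100-200 nM, on universal all-10-mer Agilent arrays made double-stranded by primer extension. Fluorescent anti-GST marked bound protein, and scans were normalised with masliner.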
row,Sequence,PBM E-score
1,CAGCAACG,0.0367
2,CCCGGTCG,-0.273
3,ATGGCTCC,-0.0462
4,AAATTGCC,0.164
5,CCGCGACC,-0.299
6,TAAAGTTA,0.0979
7,GAGGCTCC,-0.069
8,GTGCTGTA,0.0626
9,GAGACCGC,-0.142
10,CGCTTGTC,-0.0636
11,CCAGCATC,-0.224
12,AATCGTAA,0.0756
13,CATGAATC,-0.00284
14,AGCAGCGG,-0.27
15,ACCGCTCT,-0.187
16,CTGATCTA,-0.0493
17,CTACCCCA,-0.248
18,ATAAAGAA,0.169
19,AAAAGGTA,0.289
20,ACTCCGAA,-0.194
21,CATGTAAA,0.436
22,ACTATTAG,-0.0953
23,TAGTCATA,-0.0322
24,GGAAGACA,0.031
25,AATACCAT,0.18

row,Sequence,PBM E-score
1,CCAATGGC,-0.266
2,AGTCAGCC,-0.239
3,CCGAGTCA,-0.157
4,TACCCGGA,-0.0694
5,GATAAAAC,-0.0135
6,CAATCATA,0.0739
7,TAAGGGCA,0.112
8,ACCAGGGC,-0.151
9,ATCGGTAG,-0.0799
10,AACACTGC,0.0467
11,ACTACGGA,-0.0706
12,ATTCAAGC,0.0242
13,TCTGGTCA,-0.0723
14,CACTAGGC,0.156
15,AGGAGTGG,-0.16
16,CACCAAAA,0.15
17,ATTACTTG,0.248
18,ATGCGCTG,-0.00636
19,CACCAAAC,0.0828
20,ACACGCAT,0.294
21,CTGTGACC,-0.204
22,GCGCCTAC,0.358
23,CCGCCGTA,-0.264
24,GAGGAACA,0.176
25,CCCCCCAA,-0.362

row,Sequence,PBM E-score
1,CCCGTGGA,-0.314
2,GAACTCTC,-0.159
3,AATACGGT,0.117
4,GGGTGGGA,-0.317
5,AGAAGGCG,0.27
6,CTGGATCC,-0.134
7,GATCCTTA,0.0998
8,AATCTTTA,0.127
9,CCCGGTAA,-0.0361
10,ACTACTAA,0.115
11,AAATTCGT,0.0284
12,AACTCTAT,-0.0704
13,TCCCTGAA,-0.0633
14,CTAGTCTA,-0.318
15,ACCAGTTG,0.026
16,TAGCAAAA,0.0209
17,GTGACCAC,-0.231
18,CTACCATA,-0.14
19,CCTAGACC,-0.0345
20,AACCAGGA,0.0718
21,CGCCACGC,-0.224
22,CTATAGAG,-0.107
23,CCTTGGTC,-0.00825
24,AAAAGCTC,-0.174
25,CGTGTAAA,0.438

row,Sequence,PBM E-score
1,CGCAGGAA,0.356
2,TACTTAAA,0.115
3,CCTATCAA,0.0628
4,CAGCGGCG,-0.0232
5,CAGGATGA,-0.185
6,AACGCTGA,0.111
7,TGTAAAAA,0.379
8,ACTTGACT,0.0659
9,CGCTCCTA,-0.136
10,CAATATGC,-0.0568
11,AGGTTTTA,-0.0611
12,ATCGCGTC,0.0723
13,AGTGCACG,-0.057
14,CGCCGCAA,-0.0254
15,CGATTGCC,0.261
16,AAGTGTAT,0.117
17,CTCGATAC,0.24
18,AGCAAAAG,-0.101
19,CCTAGAAA,0.0447
20,TATCTCCA,-0.0122
21,CCTGCCAA,0.0278
22,CTACTTGC,0.0102
23,AGAGGACG,-0.0487
24,CTATACAC,0.254
25,GAACGGCC,-0.226

row,Sequence,PBM E-score
1,ATCGGAGA,-0.161
2,ATGCGTTC,0.121
3,AACTAGCT,-0.0073
4,AAACAGGG,-0.108
5,AAGTCCTA,-0.0798
6,ACCCCGAA,0.0302
7,AAAGACGC,-0.0791
8,ACGCTTGC,-0.135
9,AATCTGTC,-0.123
10,GTGAACAA,0.187
11,ACGATACA,0.229
12,ACTACCCC,-0.265
13,AGTGCTAG,-0.116
14,GCCAAGAA,-0.101
15,TCTCAAAA,0.00526
16,CAAGTGGC,0.0413
17,CGGCTCCC,-0.347
18,CGCGCTTC,-0.0926
19,CACCTGAC,-0.0549
20,ATAAGCTG,-0.108
21,ATTCGGGG,-0.183
22,AACAGCTT,-0.0338
23,ATCGCGCC,-0.0399
24,GGAGTAAA,0.155
25,CGGAGCGA,-0.0864

row,Sequence,PBM E-score
1,AACCATAT,-0.124
2,GGTTAGGA,-0.15
3,GCACCGTA,0.041
4,GGTGCGGA,-0.051
5,GCCTTACC,0.0815
6,AGTTCCGG,-0.359
7,AACTACAA,0.142
8,AATGATGT,0.105
9,GAAGCCTC,-0.15
10,TGAGTCCA,-0.225
11,TAGACATA,0.135
12,AGACTCAT,-0.122
13,ACTCAGAG,-0.101
14,AGGGTACT,-0.189
15,ATCCAGCG,-0.127
16,CTAGTATA,0.0657
17,ACGAACCT,-0.0403
18,ATTCGGAA,-0.0973
19,CGCACAAA,0.0214
20,TGTCAACA,0.306
21,AAACTTGG,-0.0906
22,ATAGCCTC,-0.234
23,GGTCCCGA,-0.21
24,CGCGCTAC,0.0433
25,GCCGGATA,-0.208

row,Sequence,PBM E-score
1,GGGTTTCA,-0.0357
2,CCTACTGA,0.022
3,ACACGGAG,0.166
4,CTCTTTCC,-0.166
5,CAGACAAC,0.00587
6,ATGTAACC,0.166
7,ACTCGGTG,-0.144
8,GAAGTACA,0.184
9,CACGCTAC,0.0426
10,AAAGGAGC,-0.0351
11,CCAGCTAC,-0.0525
12,CGATCGCC,-0.125
13,AACGTCCC,0.0985
14,TAAGCCCA,-0.042
15,AAGGGTCC,-0.00676
16,CTATTACA,0.378
17,GTGGACAA,0.00658
18,CGAGTGTC,-0.186
19,GAACCTCA,-0.0997
20,GGGTCGGA,-0.125
21,ACTGGTGG,-0.246
22,CGGGTGTC,-0.0642
